Data published in ChEMBL document CHEMBL4346670, “Discovery of Novel Janus Kinase (JAK) and Histone Deacetylase (HDAC) Dual Inhibitors for the Treatment of Hematological Malignancies” (J Med Chem, 2019).

Key:
[1] = target: Serine/threonine-protein kinase TBK1 (Homo sapiens) (UniProt Q9UHD2); experiment: Inhibition of recombinant human TBK1 at 20 nM using Ulight-FLGFTYVAP as substrate measured after 15 mins by LANCE method relative to control
[2] = target: Proto-oncogene tyrosine-protein kinase receptor Ret (Homo sapiens) (UniProt P07949); experiment: Inhibition of recombinant human RET at 200 nM using biotinyl-beta amyloid-beta amyloid-beta AAEEEEYFELVAKKK as substrate after 30 mins by HTRF method relative to control
Chain of UniProt P07949 (P07949 whole entry): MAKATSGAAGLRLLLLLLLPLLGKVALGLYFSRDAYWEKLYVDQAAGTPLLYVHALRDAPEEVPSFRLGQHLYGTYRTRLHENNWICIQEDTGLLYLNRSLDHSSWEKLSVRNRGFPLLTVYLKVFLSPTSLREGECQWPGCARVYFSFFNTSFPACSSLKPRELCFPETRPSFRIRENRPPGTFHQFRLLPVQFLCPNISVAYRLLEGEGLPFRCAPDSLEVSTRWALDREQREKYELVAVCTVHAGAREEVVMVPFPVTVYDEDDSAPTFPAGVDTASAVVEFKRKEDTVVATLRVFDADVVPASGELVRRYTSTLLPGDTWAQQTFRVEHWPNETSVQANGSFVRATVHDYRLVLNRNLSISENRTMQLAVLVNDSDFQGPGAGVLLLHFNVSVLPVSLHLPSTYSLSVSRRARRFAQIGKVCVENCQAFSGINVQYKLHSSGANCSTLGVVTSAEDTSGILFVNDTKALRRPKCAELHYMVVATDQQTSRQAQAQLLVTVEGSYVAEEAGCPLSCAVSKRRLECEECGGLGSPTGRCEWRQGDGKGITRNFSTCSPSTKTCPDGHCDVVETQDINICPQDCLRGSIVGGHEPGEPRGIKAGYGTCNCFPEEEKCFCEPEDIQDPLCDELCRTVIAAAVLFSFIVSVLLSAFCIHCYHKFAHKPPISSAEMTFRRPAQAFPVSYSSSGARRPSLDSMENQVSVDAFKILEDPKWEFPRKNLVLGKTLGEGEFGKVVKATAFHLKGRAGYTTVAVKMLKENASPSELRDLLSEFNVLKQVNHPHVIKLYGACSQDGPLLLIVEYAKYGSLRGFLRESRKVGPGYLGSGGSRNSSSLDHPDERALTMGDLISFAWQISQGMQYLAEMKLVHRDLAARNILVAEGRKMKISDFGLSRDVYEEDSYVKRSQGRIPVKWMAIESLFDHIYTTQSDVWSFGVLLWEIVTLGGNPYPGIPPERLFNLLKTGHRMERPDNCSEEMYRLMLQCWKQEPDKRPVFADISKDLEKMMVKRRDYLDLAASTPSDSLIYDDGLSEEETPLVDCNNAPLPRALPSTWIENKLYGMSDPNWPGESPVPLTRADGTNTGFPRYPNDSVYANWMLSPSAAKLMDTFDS

[3] = target: Homeodomain-interacting protein kinase 2 (Homo sapiens) (UniProt Q9H2X6); experiment: Inhibition of recombinant human HIPK2 at 20 nM using Ulight-CFFKNIVTPRTPPPSQGK-amide as substrate measured after 30 mins by LANCE method relative to control
Summary of the method: (§1)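 Part of an 85-kinase selectivity panel run by a contract lab, with the test compound at 20 nM and at 200 nM. Each human recombinant kinase's phosphorylation of its peptide substrate was measured following the JAK assay method. Activity is given as percent inhibition.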

[4] = target: Interleukin-1 receptor-associated kinase 1 (Homo sapiens) (UniProt P51617); experiment: Inhibition of recombinant human IRAK1 at 20 nM using Ulight-FLGFTYVAP as substrate measured after 60 mins by LANCE method relative to control; summary of the method: as §1
[5] = target: Serine/threonine-protein kinase PAK 2 (Homo sapiens) (UniProt Q13177); experiment: Inhibition of recombinant human PAK2 at 20 nM using Ulight-RRRSLLE as substrate measured after 60 mins by LANCE method relative to control; summary of the method: as §1
[6] = target: Eukaryotic translation initiation factor 2-alpha kinase 3 (Homo sapiens) (UniProt Q9NZJ5); experiment: Inhibition of recombinant human PEK at 20 nM using Ulight-FLGFTYVAP as substrate measured after 60 mins by LANCE method relative to control
Chain of UniProt Q9NZJ5 (Q9NZJ5 whole entry): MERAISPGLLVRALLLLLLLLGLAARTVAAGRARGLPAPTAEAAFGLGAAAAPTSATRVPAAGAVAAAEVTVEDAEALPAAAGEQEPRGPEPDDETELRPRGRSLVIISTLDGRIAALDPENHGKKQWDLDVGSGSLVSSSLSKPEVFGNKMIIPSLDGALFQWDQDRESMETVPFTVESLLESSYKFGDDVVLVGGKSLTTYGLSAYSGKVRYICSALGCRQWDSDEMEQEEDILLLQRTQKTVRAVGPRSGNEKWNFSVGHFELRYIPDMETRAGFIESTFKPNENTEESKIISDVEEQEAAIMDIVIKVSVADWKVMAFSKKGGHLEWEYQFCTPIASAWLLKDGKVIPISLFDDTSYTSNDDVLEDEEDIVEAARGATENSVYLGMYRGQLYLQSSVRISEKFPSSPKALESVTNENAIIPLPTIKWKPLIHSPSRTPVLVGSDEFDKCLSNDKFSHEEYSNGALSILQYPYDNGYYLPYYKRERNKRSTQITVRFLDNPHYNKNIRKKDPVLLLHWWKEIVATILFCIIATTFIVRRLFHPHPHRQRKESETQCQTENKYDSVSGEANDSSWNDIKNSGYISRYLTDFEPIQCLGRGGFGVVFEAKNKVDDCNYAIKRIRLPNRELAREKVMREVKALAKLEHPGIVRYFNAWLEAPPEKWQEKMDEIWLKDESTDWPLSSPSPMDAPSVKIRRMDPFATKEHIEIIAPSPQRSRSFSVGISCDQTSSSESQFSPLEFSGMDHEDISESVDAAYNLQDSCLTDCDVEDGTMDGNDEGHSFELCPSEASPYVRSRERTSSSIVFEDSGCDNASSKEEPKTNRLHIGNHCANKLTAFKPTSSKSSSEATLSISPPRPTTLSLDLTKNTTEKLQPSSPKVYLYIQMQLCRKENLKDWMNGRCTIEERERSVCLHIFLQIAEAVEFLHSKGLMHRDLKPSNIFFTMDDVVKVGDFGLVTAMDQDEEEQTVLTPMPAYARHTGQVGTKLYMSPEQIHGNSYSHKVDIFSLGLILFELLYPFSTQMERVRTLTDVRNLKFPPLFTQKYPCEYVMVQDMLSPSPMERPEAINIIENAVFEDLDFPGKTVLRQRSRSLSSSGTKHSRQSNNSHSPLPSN

[7] = target: Proto-oncogene tyrosine-protein kinase receptor Ret (Homo sapiens) (UniProt P07949); experiment: Inhibition of recombinant human RET at 20 nM using biotinyl-beta amyloid-beta amyloid-beta AAEEEEYFELVAKKK as substrate after 30 mins by HTRF method relative to control
[8] = target: Vascular endothelial growth factor receptor 2 (Homo sapiens) (UniProt P35968); experiment: Inhibition of recombinant human VEGFR2 at 200 nM using Ulight-CAGAGAIETDKEYYTVKD as substrate measured after 60 mins by LANCE method relative to control
[9] = target: Tyrosine-protein kinase Fyn (Homo sapiens) (UniProt P06241); experiment: Inhibition of recombinant human FYN at 200 nM using biotinyl-beta amyloid-beta amyloid-beta AYQAEENTYDEYEN as substrate after 60 mins by HTRF method relative to control
Chain of UniProt P06241 (P06241 whole entry, looked up): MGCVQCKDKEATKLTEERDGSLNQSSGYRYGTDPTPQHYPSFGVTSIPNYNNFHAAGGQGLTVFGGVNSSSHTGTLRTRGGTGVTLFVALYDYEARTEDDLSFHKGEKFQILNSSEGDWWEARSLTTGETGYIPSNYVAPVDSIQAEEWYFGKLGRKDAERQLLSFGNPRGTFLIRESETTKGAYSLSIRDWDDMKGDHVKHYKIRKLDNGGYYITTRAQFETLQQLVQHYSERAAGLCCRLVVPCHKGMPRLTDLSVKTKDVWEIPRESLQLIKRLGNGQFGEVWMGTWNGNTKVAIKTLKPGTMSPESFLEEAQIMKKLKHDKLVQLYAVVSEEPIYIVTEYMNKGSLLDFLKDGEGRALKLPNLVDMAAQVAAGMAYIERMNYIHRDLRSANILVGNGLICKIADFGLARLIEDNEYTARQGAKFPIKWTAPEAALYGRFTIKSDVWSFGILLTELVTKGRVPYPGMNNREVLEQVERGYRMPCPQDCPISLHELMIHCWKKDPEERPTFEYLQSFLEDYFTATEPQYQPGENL

[10] = target: Tyrosine-protein kinase Fyn (Homo sapiens) (UniProt P06241); experiment: Inhibition of recombinant human FYN at 20 nM using biotinyl-beta amyloid-beta amyloid-beta AYQAEENTYDEYEN as substrate after 60 mins by HTRF method relative to control
[11] = target: Fibroblast growth factor receptor 1 (Homo sapiens) (UniProt P11362); experiment: Inhibition of recombinant human FGFR1 at 200 nM using Ulight-CAGAGAIETDKEYYTVKD as substrate measured after 60 mins by LANCE method relative to control
Chain of UniProt P11362 (P11362 whole entry, looked up): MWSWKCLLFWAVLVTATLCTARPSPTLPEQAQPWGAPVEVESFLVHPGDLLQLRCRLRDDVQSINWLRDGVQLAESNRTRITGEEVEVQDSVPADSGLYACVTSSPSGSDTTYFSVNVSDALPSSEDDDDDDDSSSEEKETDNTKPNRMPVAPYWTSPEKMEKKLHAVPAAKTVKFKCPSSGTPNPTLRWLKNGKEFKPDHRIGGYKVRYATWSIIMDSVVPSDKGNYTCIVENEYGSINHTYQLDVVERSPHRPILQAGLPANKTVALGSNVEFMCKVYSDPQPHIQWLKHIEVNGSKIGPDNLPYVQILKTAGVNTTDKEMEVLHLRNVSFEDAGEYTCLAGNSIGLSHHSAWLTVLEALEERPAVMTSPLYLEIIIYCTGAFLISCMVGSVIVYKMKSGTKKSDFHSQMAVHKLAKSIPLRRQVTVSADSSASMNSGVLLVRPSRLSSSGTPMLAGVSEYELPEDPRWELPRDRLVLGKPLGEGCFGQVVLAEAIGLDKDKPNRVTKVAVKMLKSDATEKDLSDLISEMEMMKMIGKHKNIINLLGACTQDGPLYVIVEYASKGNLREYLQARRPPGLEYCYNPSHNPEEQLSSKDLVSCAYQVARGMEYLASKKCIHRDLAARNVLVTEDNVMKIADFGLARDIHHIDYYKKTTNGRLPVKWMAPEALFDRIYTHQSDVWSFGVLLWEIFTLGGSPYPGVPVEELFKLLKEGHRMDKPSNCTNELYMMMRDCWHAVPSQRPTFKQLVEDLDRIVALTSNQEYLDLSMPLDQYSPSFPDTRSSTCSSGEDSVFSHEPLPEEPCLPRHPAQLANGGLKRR
Summary of the method: (§2)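 Single-concentration screen within an 85-kinase panel run by a contract lab, with each compound tested at 20 nM and 200 nM. Human recombinant enzymes were used. Activity was quantified as phosphorylation of a peptide substrate read by LANCE time-resolved detection, and inhibition was expressed relative to control, using the same format as the JAK assay.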

[12] = target: Platelet-derived growth factor receptor beta (Homo sapiens) (UniProt P09619); experiment: Inhibition of recombinant human PDGFRbeta at 200 nM using Ulight-Poly GAT[EAY(1:1:1)] as substrate measured after 30 mins by LANCE method relative to control
[13] = target: Insulin receptor-related protein (Homo sapiens) (UniProt P14616); experiment: Inhibition of recombinant human IRR at 20 nM using Ulight-TK peptide as substrate measured after 30 mins by LANCE method relative to control; summary of the method: as §1
[14] = target: Serine/threonine-protein kinase N1 (Homo sapiens) (UniProt Q16512); experiment: Inhibition of recombinant human PKN1 at 20 nM using CREBtide as substrate measured after 15 mins by LANCE assay relative to control
[15] = target: Glycogen synthase kinase-3 beta (Homo sapiens) (UniProt P49841); experiment: Inhibition of recombinant human GSK3beta at 200 nM using Ulight-CFFKNIVTPRTPPPSQGK-amide as substrate measured after 90 mins by LANCE method relative to control; summary of the method: as §1
Chain of UniProt P49841 (P49841 whole entry, looked up): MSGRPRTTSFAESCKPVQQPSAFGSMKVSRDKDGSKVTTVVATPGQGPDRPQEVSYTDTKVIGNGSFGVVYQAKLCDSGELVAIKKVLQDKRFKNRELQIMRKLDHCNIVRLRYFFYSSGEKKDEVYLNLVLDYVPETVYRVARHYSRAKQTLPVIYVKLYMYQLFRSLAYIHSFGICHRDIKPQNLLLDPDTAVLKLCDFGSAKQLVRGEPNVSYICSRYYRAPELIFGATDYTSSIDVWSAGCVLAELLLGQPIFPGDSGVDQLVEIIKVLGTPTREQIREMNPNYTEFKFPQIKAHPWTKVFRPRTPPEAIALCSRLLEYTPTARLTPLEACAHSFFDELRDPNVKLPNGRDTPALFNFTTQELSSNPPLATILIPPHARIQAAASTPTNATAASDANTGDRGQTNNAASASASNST

[16] = target: Ribosomal protein S6 kinase alpha-4 (Homo sapiens) (UniProt O75676); experiment: Inhibition of recombinant human MSK2 at 200 nM using biotinyl-beta amyloid-beta amyloid-beta AAAARARTSSFAEPG after 15 mins by HTRF method relative to control
[17] = target: Cyclin-dependent kinase 6 (Homo sapiens) (UniProt Q00534); experiment: Inhibition of recombinant human CDK6 at 200 nM using Ulight-CFFKNIVTPRTPPPSQGK-amide as substrate measured after 60 mins by LANCE assay relative to control; summary of the method: as §2
Chain of UniProt Q00534 (Q00534 whole entry): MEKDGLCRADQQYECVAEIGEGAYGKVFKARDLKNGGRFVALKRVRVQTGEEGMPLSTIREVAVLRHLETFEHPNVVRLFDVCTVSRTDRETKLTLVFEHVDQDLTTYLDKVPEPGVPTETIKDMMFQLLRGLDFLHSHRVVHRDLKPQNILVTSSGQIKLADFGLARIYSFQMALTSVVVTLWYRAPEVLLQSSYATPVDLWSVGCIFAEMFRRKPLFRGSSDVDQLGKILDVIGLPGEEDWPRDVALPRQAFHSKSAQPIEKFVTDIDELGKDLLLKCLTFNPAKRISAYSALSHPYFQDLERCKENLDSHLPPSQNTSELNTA

[18] = target: 3-phosphoinositide-dependent protein kinase 1 (Homo sapiens) (UniProt O15530); experiment: Inhibition of recombinant human PDK1 at 20 nM using Ulight-FLGFTYVAP as substrate measured after 90 mins by LANCE method relative to control
[19] = target: Serine/threonine-protein kinase 4 (Homo sapiens) (UniProt Q13043); experiment: Inhibition of recombinant human MST1 at 200 nM using Ulight-FLGFTYVAP as substrate measured after 60 mins by LANCE method relative to control; summary of the method: as §1
[20] = target: Macrophage colony-stimulating factor 1 receptor (Homo sapiens) (UniProt P07333); experiment: Inhibition of recombinant human CSFR at 20 nM using Ulight-TK peptide as substrate measured after 15 mins by LANCE method relative to control; summary of the method: as §2
[21] = target: Hepatocyte growth factor receptor (Homo sapiens) (UniProt P08581); experiment: Inhibition of recombinant human c-MET at 20 nM using Ulight-CAGAGAIETDKEYYTVKD as substrate measured after 60 mins by LANCE method relative to control
[22] = target: Tyrosine-protein kinase SYK (Homo sapiens) (UniProt P43405); experiment: Inhibition of recombinant human SYK at 20 nM using Ulight-CAGAGAIETDKEYYTVKD as substrate measured after 30 mins by LANCE assay
[23] = target: Serine/threonine-protein kinase TBK1 (Homo sapiens) (UniProt Q9UHD2); experiment: Inhibition of recombinant human TBK1 at 200 nM using Ulight-FLGFTYVAP as substrate measured after 15 mins by LANCE method relative to control
[24] = target: Tyrosine-protein kinase Yes (Homo sapiens) (UniProt P07947); experiment: Inhibition of recombinant human YES at 200 nM using biotinyl-beta amyloid-beta amyloid-beta AYQAEENTYDEYEN as substrate after 30 mins by LANCE method relative to control
[25] = target: Fibroblast growth factor receptor 1 (Homo sapiens) (UniProt P11362); experiment: Inhibition of recombinant human FGFR1 at 20 nM using Ulight-CAGAGAIETDKEYYTVKD as substrate measured after 60 mins by LANCE method relative to control; summary of the method: as §2
[26] = target: Inhibitor of nuclear factor kappa-B kinase subunit alpha (Homo sapiens) (UniProt O15111); experiment: Inhibition of recombinant human IKKalpha at 20 nM using Ulight-IkappaB-alpha as substrate measured after 30 mins by LANCE method relative to control; summary of the method: as §1

Chain of UniProt Q9UHD2 (Q9UHD2 whole entry): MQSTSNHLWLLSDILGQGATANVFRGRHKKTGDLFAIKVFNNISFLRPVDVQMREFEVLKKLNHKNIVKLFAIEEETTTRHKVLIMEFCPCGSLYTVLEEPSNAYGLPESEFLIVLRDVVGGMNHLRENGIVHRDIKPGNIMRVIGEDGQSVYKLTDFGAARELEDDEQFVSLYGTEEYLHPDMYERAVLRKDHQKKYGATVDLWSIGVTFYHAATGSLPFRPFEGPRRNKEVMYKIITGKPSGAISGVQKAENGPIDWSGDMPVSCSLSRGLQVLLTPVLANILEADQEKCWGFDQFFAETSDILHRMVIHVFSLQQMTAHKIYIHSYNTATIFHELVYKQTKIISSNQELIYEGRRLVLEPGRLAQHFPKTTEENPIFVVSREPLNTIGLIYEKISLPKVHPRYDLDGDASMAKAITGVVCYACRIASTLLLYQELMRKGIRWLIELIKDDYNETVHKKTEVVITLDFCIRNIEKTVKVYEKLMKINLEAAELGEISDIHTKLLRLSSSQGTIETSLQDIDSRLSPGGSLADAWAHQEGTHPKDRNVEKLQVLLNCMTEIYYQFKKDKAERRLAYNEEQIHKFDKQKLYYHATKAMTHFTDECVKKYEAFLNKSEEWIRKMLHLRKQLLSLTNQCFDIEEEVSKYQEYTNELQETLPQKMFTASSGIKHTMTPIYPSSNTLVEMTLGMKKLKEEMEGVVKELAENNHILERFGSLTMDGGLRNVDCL

Question: `O=C(CCCCCn1cc(Nc2ncc(Cl)c(Nc3ccc(Cl)cc3)n2)cn1)NO` was tested. Which inhibition [1] did it give?
Answer: Its inhibition is 0%.

Question: And the inhibition [2]?
Answer: Its inhibition is 99%.

Question: And the inhibition [3]?
Answer: The inhibition was -4%.

Question: What about the inhibition [4] of the same compound?
Answer: The inhibition was 10%.

Question: What about the inhibition [5] of the same compound?
Answer: Its inhibition is -3%.

Question: What about the inhibition [6] of the same compound?
Answer: The inhibition was 8%.

Question: What about the inhibition [7] of the same compound?
Answer: Its inhibition is 92%.

Question: What about the inhibition [8] of the same compound?
Answer: The inhibition was 96%.

Question: What about the inhibition [9] of the same compound?
Answer: The inhibition was 42%.

Question: What about the inhibition [10] of the same compound?
Answer: The inhibition was 18%.

Question: And the inhibition [11]?
Answer: The inhibition was 32%.

Question: And the inhibition [12]?
Answer: Its inhibition is 55%.

Question: What about the inhibition [13] of the same compound?
Answer: Its inhibition is 11%.

Question: What about the inhibition [14] of the same compound?
Answer: Its inhibition is 11%.

Question: And the inhibition [15]?
Answer: Its inhibition is 48%.

Question: What about the inhibition [16] of the same compound?
Answer: Its inhibition is 17%.

Question: And the inhibition [17]?
Answer: Its inhibition is 34%.

Question: And the inhibition [18]?
Answer: The inhibition was 5%.

Question: What about the inhibition [19] of the same compound?
Answer: The inhibition was 23%.

Question: And the inhibition [20]?
Answer: The inhibition was 2%.

Question: And the inhibition [21]?
Answer: The inhibition was 5%.

Question: And the inhibition [22]?
Answer: The inhibition was 8%.

Question: And the inhibition [23]?
Answer: Its inhibition is 47%.

Question: What about the inhibition [24] of the same compound?
Answer: Its inhibition is 44%.

Question: What about the inhibition [25] of the same compound?
Answer: The inhibition was -3%.

Question: And the inhibition [26]?
Answer: The inhibition was 8%.
